Measurements published in PubChem BioAssay AID1259400 (National Center for Advancing Translational Sciences (NCATS), 2018).
Hit rate of the full screen: of about 350,000 compounds, about 2,100 (0.6%) were called active. Inconclusive means that the source gave no clear call. Such entries were picked first, then a sample of the others.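 Rule for the calls: active = activity change of -60% or lower, but not beyond a set lower limit; inconclusive = change between -60% and -40%, or beyond the set limit; inactive = change above -40%.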

target: Relaxin receptor 1 (Homo sapiens) (UniProt Q9HBX9); test: qHTS Assay for Antagonists of the Relaxin Receptor RXFP1; conditions: HEK293-RXFP1, relaxin-stimulated cAMP HTRF, 30 min; at 57.5 µM; stronger effect = lower value
% is set by controls: 0 for no effect and ±100 for the full control effect.

Chain of UniProt Q9HBX9 (Q9HBX9 whole entry, looked up): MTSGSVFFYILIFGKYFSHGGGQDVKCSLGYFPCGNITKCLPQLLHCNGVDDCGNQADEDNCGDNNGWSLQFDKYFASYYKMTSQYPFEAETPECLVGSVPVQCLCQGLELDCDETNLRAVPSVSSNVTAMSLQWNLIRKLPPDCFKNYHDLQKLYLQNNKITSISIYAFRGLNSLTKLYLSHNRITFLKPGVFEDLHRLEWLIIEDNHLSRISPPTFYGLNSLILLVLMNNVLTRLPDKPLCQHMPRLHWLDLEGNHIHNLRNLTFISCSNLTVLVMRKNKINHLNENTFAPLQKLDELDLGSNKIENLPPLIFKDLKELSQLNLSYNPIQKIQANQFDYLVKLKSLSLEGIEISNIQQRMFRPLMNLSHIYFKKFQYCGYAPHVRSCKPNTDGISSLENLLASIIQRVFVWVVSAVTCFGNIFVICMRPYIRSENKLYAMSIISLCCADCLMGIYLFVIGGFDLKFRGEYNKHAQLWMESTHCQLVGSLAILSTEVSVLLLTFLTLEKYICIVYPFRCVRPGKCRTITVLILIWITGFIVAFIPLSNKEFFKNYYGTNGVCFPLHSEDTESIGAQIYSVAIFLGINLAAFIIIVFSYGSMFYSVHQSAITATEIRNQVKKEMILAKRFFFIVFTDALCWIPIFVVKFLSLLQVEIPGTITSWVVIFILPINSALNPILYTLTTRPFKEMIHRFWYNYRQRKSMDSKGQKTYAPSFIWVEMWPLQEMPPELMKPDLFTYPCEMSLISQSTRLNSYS

Structure (SMILES)	activity change, negative = inhibition
COc1ccc(Cc2nc3ccc(C(=O)NCCCN4CCN(C)CC4)cc3o2)cc1	inconclusive: -41.7%
CCS(=O)(=O)Nc1ccc(-c2nnc(SCC(=O)OC)o2)cc1	inactive: -16.9%
Cc1cc(NCc2ccccn2)n2nc(C)c(-c3ccccc3)c2n1	inactive: 4.59%
O=C(C=Cc1ccccn1)c1ccccc1	active: -65%
CSc1nc(O)c(C(c2ccc(OC(C)C)cc2)c2c(O)nc(SC)[nH]c2=O)c(=O)[nH]1	inconclusive: -40.3%
CCOc1ccc2nc(NC(=O)c3ccccc3)sc2c1	inactive: -0.207%
C=CCN(CC=C)CC(O)Cn1c2ccccc2c2ccccc21 (stereo not given)	inconclusive: -44.9%
Cc1oc(-c2cccc(Cl)c2)nc1CSCC(=O)NCc1ccccc1Cl	inconclusive: -43.4%
CCOc1cc(CNCCO)cc(Br)c1OCc1ccc(Cl)cc1Cl	active: -92.4%
CCn1c(O)c(N=Nc2ccc3ccccc3n2)c2ccccc21	inactive: -3.76%
O=C(NCc1cccnc1)/C(=C\c1ccc(-c2ccc(Br)cc2)o1)S(=O)(=O)c1ccccc1	inconclusive: -51.2%
COc1ccccc1OCC(=O)N(Cc1nc(-c2ccccc2)no1)C(C)C	inconclusive: -48.4%
O=C(c1cnc(N2CCCCC2)c2ccccc12)N1CCN(c2cccc(Cl)c2)CC1	inconclusive: -48.5%
Nc1nc2ccccc2n1CCOc1ccc(F)cc1	inactive: 3.86%
COC1=CC(=O)C(C2CC(=O)c3c(O)cc(O)cc3O2)=CC1=O (stereo not given)	inconclusive: -54.2%
CCOC(=O)CN1C(c2ccccc2O)Nc2ccc(Br)cc2C1c1ccccc1 (stereo not given)	active: -72.5%
COc1cc(S(=O)(=O)Nc2ccc(C)cc2)ccc1N=Cc1c(C)[nH]n(-c2ccccc2)c1=O	inconclusive: -40.8%
CSc1ncc(C(=O)NCc2ccc(C)cc2)c(-c2ccccc2)n1	inactive: -5.2%
O=[N+]([O-])c1cccc(NC2=NCCC2)c1	active: -64.5%
CCOc1ccc(C(=O)CC(C(=O)O)N2CCCCC2)cc1 (stereo not given)	inconclusive: -48.3%
Cc1ccc(-n2c(SCC(=O)NNC(=S)Nc3ccccc3)nc3ccccc3c2=O)cc1	inconclusive: -45.2%
CC(C)C(=O)Nc1cccc(C(=O)Nc2nnc(CC(C)(C)C)s2)c1	inactive: -9.65%
O=C(CSc1nc2ccccc2n1CCc1ccccc1)c1ccc(O)c(O)c1	inconclusive: -51.9%
CCCc1cc(C(=O)N(C2CCCCC2)C2CCCCC2)no1	active: -70.4%
COc1ccc(CCNC(=O)c2ccc3c(c2)ncn3-c2ccc(C(C)C)cc2)cc1OC	inconclusive: -51.9%
